# According to ChEMBL document CHEMBL4888484, “Replenishing the malaria drug discovery pipeline: Screening and hit evaluation of the MMV Hit Generation Library 1 (HGL1) against asexual blood stage Plasmodium falciparum ,using a nano luciferase reporter read-out” (2022):
# Among all 4,800 compounds or so, about 420 (8.8%) showed an effect of 50% or more. Some of the results follow.
# System: Plasmodium falciparum
# Assay: Confirmatory screen in NF54 nanoGlo assay, in single point, at 2uM, 72h
# Assay type: functional, Erythrocyte
# Conditions: timepoint 72 hour
row,Compound,% Inhibition [%]
1,Cc1ccc(-c2n[nH]c(NC(=O)Nc3ccc(F)c(S(=O)(=O)NC4CC4)c3)c2C)o1,-9
2,CS(=O)(=O)N[C@H]1C[C@@H]2C[C@H]1N(C(=O)NCc1cccc(F)c1)C2,6
3,N#Cc1nccnc1NCCCCN1C(=O)c2ccccc2C1=O,-11
4,CCOc1ccc(C(=O)N2CCN(c3nnc4ccccn34)CC2)cc1,-1
5,CCc1cc(C(=O)N(CC)c2ccccc2)c2c(C)noc2n1,-7
6,COc1ccc(Cl)cc1S(=O)(=O)c1cnc(N2CCOCC2)nc1N,-2
7,O=C(NCc1ccc2c(c1)OCO2)C(F)(F)C(F)(F)C(F)(F)C(F)(F)C(=O)NCc1ccc2c(c1)OCO2,-10
8,CCCC1(CNC(=O)Nc2nc(CS(C)(=O)=O)no2)CC1,-5
9,Nc1n[nH]c2ccc(C3OCCCO3)cc12,2
10,O=C(Cn1cnc2cc3c(cc21)OCCCO3)Nc1ccc(F)cc1,7
11,Cn1cc(-c2noc(-c3ccc(C#N)cc3)n2)ccc1=O,1
12,Cc1ccc(C(=O)C[n+]2cc(-c3ccc(-c4ccccc4)cc3)n(C)c2N)cc1,4
13,CCCN(Cc1cnn(C)c1)C(=O)NCc1ccc(C)nc1OC,-12
14,Cc1cc(C)cc(NC(=O)Cc2nc(C)c(C(=O)NCc3ccccc3)s2)c1,0
15,Cc1cc(Cl)ccc1S(=O)(=O)N[C@@H](C)C#N,0
16,COc1ccccc1CC(=O)NC[C@H](C)O,5
17,Cc1ccc2c(-c3ccccc3)c(-c3nnnn3-c3ccccc3)cnc2c1,-20
18,O=C(NCCOc1cccc(F)c1)c1cccnc1NC1CCCC1,6
19,Cc1cccc(Oc2cc(N)cc(Oc3cccc(C)c3)c2)c1,1
20,CN1CCc2ncnc(Nc3ccc4nc(N5CCCC5)sc4c3)c2C1,2
21,CCn1nccc1CN(C)C(=O)c1cc(C)c(C)s1,5
22,CCOC(=O)c1c(C(F)(F)F)[nH]n2c(C(F)F)nnc12,-3

row,Compound,% Inhibition [%]
1,Cc1[nH]n(-c2nc(C(F)(F)F)cc(=O)[nH]2)c(=O)c1CCO,-17
2,COc1cccc(CNC(=O)Nc2cc3c(cc2N2CCCCC2)n(C)c(=O)n3C)c1,-8
3,N#Cc1cccc(-c2n[nH]c3c2CN(c2ccc(-c4ccccc4)nn2)CC3)c1,85
4,CCC1CCCCC1N1CCC(NC(=O)C2CCOCC2)CC1 (stereo not given),-13
5,O=C(Nc1nccnc1C(=O)O)c1ccc(Cl)cc1,4
6,Cc1nn(Cn2cc(NC(=O)c3ccc(COc4ccc(F)cc4F)o3)cn2)c(C)c1Cl,-6
7,O=C(NC1CCCC1)c1cnn2c3c(cnc12)CCCCCC3,0
8,O=C(N[C@@H](N1CCCCC1)C(Cl)(Cl)Cl)c1cccnc1,2
9,CCc1ncoc1C(=O)NCC(F)(F)c1cc(F)cc(F)c1,-10
10,O=C(NCc1cccc(Cl)c1)[C@H]1CCCN(c2nc3cccnc3n(Cc3ccccc3)c2=O)C1,-6
11,COc1cc(CC2CN(C(=O)c3cscn3)C2)cc(OC)c1,-6
12,N#Cc1cc(C(=O)Nc2nccc3sccc23)c[nH]1,-12
13,N#Cc1ccc(O)c(NC(=O)c2snc(O)c2Cl)c1,-7
14,COc1cc(N)c(NC(C)=O)cc1Cl,-1
15,COc1ccc(S(=O)(=O)N(c2onc(C)c2Cl)S(=O)(=O)c2ccc(OC)c(OC)c2)cc1OC,-3
16,Cc1c(-c2cc(-c3cnn(C)c3C)n(CC(=O)NC3CCCCC3)n2)cnn1C,5
17,O=C(Nc1cccc(Cl)c1)c1ccc(-c2cnc(N3CCCC3)nc2)cc1,-1
18,C[C@H](OC1CCCCCC1)C(=O)Nc1nc(C(N)=O)cs1,-20
19,COc1ccccc1N1C(=O)C2C(C)NC3(C(=O)N(Cc4ccc(F)cc4)c4ccccc43)C2C1=O (stereo not given),11
20,Cc1ccc(-c2noc(CCC(=O)NCC(C)C)n2)c(=O)n1C(C)C,-2
21,O=S(=O)(c1ccc(CC(F)(F)F)cc1)N1CCOCC12CCC2,-5
22,CC(N)C1CCN(c2cncc(OCC3CCCC3)n2)C1 (stereo not given),-1

row,Compound,% Inhibition [%]
1,CCn1nccc1C(=O)NC1CCN(c2nnc3ccc(Cl)cn23)CC1,0
2,Oc1ccc2ccccc2c1-c1nc2ncccn2c1Nc1ccc(Cl)cc1,6
3,COc1ccc(C)cc1NC(=O)[C@H]1CCCN(c2cn[nH]c(=O)c2)C1,-12
4,O=C(Nc1ccccc1-c1nnc[nH]1)c1ccc(F)c(Cl)c1,-3
5,COc1ccc(N=C2NC(=O)CC(=O)N2)cc1,-10
6,c1ccc(C2=NN(c3ccc(-c4cc(-c5ccccc5)[n+](-c5ccccc5)c(-c5ccccc5)c4)cc3)[C@H](c3ccccc3)C2)cc1,94
7,CC(C)O[C@@H]1CCN(C[C@H](O)c2ccc(C(F)(F)F)cc2)C1,35
8,Cc1c(Cc2c(Cl)cccc2Cl)c(=O)ccn1[C@@H](C)c1ccccc1,-2
9,COC[C@@H](C)CNc1nc(C)cc(C)n1,-3
10,c1ccc(-c2noc(-c3ccc(NC4CCCCC4)nn3)n2)cc1,55
11,CN([C@H]1CCCc2c1cnn2C)S(=O)(=O)CCN1CCCC1,1
12,CCNC(=O)NCCOC(=O)Cc1cc(Cl)cc2c1OCC2,3
13,COc1cccc(N2CCN(C(=O)c3cc4c(s3)CCN(C(C)=O)C4)CC2)c1,-4
14,CC(C)(C)CC(C)(C)N1C[C@@H](C(=O)O)CC1=O,-7
15,COc1cccc(S(=O)(=O)N2CCCN(Cc3ccncc3)[C@H](c3ccccc3)CC(=O)NCC2)c1,92
16,CCc1nnc2ccc(S(=O)(=O)Nc3ccc(Cl)cc3)cn12,8
17,CCOC(=O)c1cnn(C)c1S(=O)(=O)N1CCCCC1,-5
18,Fc1ccccc1N1CCN(c2c3c(nc4nc(Cc5ccc(Cl)cc5)nn24)CCCC3)CC1,-11
19,COc1cccc2c(N3CC[C@]4(CNC(=O)C4)C3)nccc12,-4
20,C[C@@H](C(=O)Nc1ncc[nH]1)c1ccc2c(c1)[nH]c1ccc(Cl)cc12,9
21,O=C(CN1C(=O)[C@H]2CCCC2=Nc2ccccc21)NCCCc1ccccc1,-13
